The list shows a part of the results.
B1: 17669756_17675234_813_CDS_ENSG00000124789_ENST00000262077|human|control|control (ssRNA)
RNA: GGGAGUUCUACAGUCCGACGAUCCAUUUGUCUUCUAACUGGUGCCUGAUAAGGUGUAUUUCGUAGUUUAGACUGUCUUACAGCAGCUGCUGCCCCACCGUAUGUUGUUUUUCCAGGAUAAAAAGGAGAAUCUCCAAGCUGACUCAACAGAGGAUUGAGCAUCA
B2: chr22:19452774:19452775:-_ENSG00000070010_ENST00000399523|hu_hu|hu_hu_hu_mus_False|28_28 (ssRNA)
RNA: GGGAGUUCUACAGUCCGACGAUCCUUCUCAUUGUAGUUGAUAGCAAUCACAUCUCCAGUCGUCAGACAGGCGAAGUUUCUCAAUGCAUUUUCUAAUACCGCUUUAGGGUUGGUGAUAUCCAGGAAGUCUGGGCUCUGAGGCUGCAACAGAGGAUUGAGCAUCA
B3: chr1:6238667:6238668:+_ENSMUSG00000025907_ENSMUST00000027040|mus_hu|FALSE|FALSE (ssRNA)
RNA: GGGAGUUCUACAGUCCGACGAUCCAUCAUUUCUGGGCUUUGUGGAUCACUUAUAGGAUUAGGAGACGACAAAUUUUCUUCUAUUACAAACUCAUUCACAGCAGACAUAAAAUCUGAUUCAGGACUUUCUGCUAAUGAAUCCAACAACAGAGGAUUGAGCAUCA
B4: chr10:72184726:72184727:+_ENSG00000148730_ENST00000373218|hu_hu|FALSE|FALSE (ssRNA)
RNA: GGGAGUUCUACAGUCCGACGAUCUCAUGUUAAACUACUCCCAAAUUCUUAACCCACAGAAACUGACAGAUAAUGUUUACUAUUUUAACAUACUAAAUUUAGGGUAAUUUUUUACACAGCAAUAGAUAACUAAUACAGGUGGAACAACAGAGGAUUGAGCAUCA
B5: chr6:82862619:82862620:-_ENSMUSG00000000627_ENSMUST00000000641|mus_hu|motif|central (ssRNA)
RNA: GGGAGUUCUACAGUCCGACGAUCUAUCUUUAUACUGCUCGUAUAUCCUAUGACUGUUCCCCUUCUGUUGUUCCCGGAUCAUUAGAAUGUUGUUGAUUUUUAAUGGGAGCCAAGGAAAUGGGGUACAGCCUACACUCCAGCCAGCAACAGAGGAUUGAGCAUCA
B6: chr5:145598128:145598129:+_ENSMUSG00000045482_ENSMUST00000132925|mus_hu|FALSE|FALSE (ssRNA)
RNA: GGGAGUUCUACAGUCCGACGAUCGAGGCGUGUGCACGUGGGACACUACGUGGGGCAGCCGCCGCCACUCGCGGAUGGCCAGGCUGCUGGCCAUCUCCACCAGGCGCUCGAUGAAGCUGAGCUGCUGCUCCUCGGGGUGGCAGACAACAGAGGAUUGAGCAUCA
B7: chr2:60073003:60073004:+_ENSMUSG00000026977_ENSMUST00000102748|mus_mus|FALSE|FALSE (ssRNA)
RNA: GGGAGUUCUACAGUCCGACGAUCAAGGAGGCUUUCUUUGAUUUUCUGAAGUUUUUCUGGGUCUCUUGAAGGUGCACUUUUAGCUUUAUCAUUUUUCCCAUCAGUUGAAUUCCAACCAGAAGGAAUAAUAUCUACAGUAAUCAUCAACAGAGGAUUGAGCAUCA
B8: 91424020_91424254_1995_CDS_ENSG00000140564_ENST00000268171|human|control|control (ssRNA)
RNA: GGGAGUUCUACAGUCCGACGAUCGGACGUGAGGGUCUUGCAGCCACUGCUUUCUGGAGGUACGGGCAGCCCCUCAGGGGCGGUGCCAUAGAGUACGAGGGUGAACUUGGUCAGCGUCCCAUAGUUGUUGGCUUCGCUGGUGUUCAACAGAGGAUUGAGCAUCA
B9: chr2:64863866:64863867:-_ENSG00000179833_ENST00000313349|hu_hu|FALSE|FALSE (ssRNA)
RNA: GGGAGUUCUACAGUCCGACGAUCAAUUAAAACGGUCUUUUGCAAGCUGGGCUCUGUCAGGGGCCUGUGGUUAUAGAGUUUCAUAAGGGAAAUGUUGAAGAUAGUCUGGCGCUGUAAGGUGUAAGACACCUUGGAUGGACCGUCCAACAGAGGAUUGAGCAUCA
B10: chr17:57756778:57756779:+_ENSG00000141367_ENST00000269122|hu_hu|FALSE|FALSE (ssRNA)
RNA: GGGAGUUCUACAGUCCGACGAUCGCUGCCCCACAAUUCUGGAUCCUUUCGACGUACCAGGUAGCGAGAAAGACUUUUGAAGAGGGAAUUCUCAUUGCAAACAUUAAUAAGUUCCAGAUCACAUUGGCCACGUUCAUAAGCAACCAACAGAGGAUUGAGCAUCA
B11: chrX:131338992:131338993:-_ENSMUSG00000033436_ENSMUST00000035559|mus_hu|FALSE|FALSE (ssRNA)
RNA: GGGAGUUCUACAGUCCGACGAUCAUAACAUCACUCUGGAUGAUACAUUAUUCAACACUGGCAGCUGAAAGGAUCCCUUUACUAUAUGAGCAAGUGGAAAAGCAGUAACUUUCAAUUUUCAACGCUUCCACACUGCAAAAUCAUCAACAGAGGAUUGAGCAUCA
B12: chr3:152122376:152122377:+_ENSMUSG00000039068_ENSMUST00000106100|mus_hu|FALSE|FALSE (ssRNA)
RNA: GGGAGUUCUACAGUCCGACGAUCAACAGACAGUAUCCACAUAGUUUAUUUCUCACAGUUCUCCUGACAAAUGAACAUCAUUCAAGAACAUACUGUAUACACAGAUAAGAAGAAACAUACAAAAUGUUUUAAAUGAUGCACAACCAACAGAGGAUUGAGCAUCA
B13: chr8:32276666:32276667:-_ENSMUSG00000031578_ENSMUST00000033983|mus_hu|FALSE|FALSE (ssRNA)
RNA: GGGAGUUCUACAGUCCGACGAUCACGGGGCCAGUAAAUCAGAUUUUCAUCUAUUUGCUCCAGUGCUUUCUCAUAGUUUUUACUAAGCCGGACCCGUUCCCAGAGACGCCGAGGAAAAGCCGCUCGUUCUAUAACCUUCAUAUACAACAGAGGAUUGAGCAUCA
B14: chr4:115894766:115894767:+_ENSMUSG00000028698_ENSMUST00000030464|mus_hu|mus_mus_mus_hu_True|28_58 (ssRNA)
RNA: GGGAGUUCUACAGUCCGACGAUCUUCCACACGGAAAUGUACUUCGGGUUUUCCAACGGCCAGUACCAGUCCGGCCAACUACUAGGAACAGGGUCCUCCCCCUCUCUUCUCUCCUCCACAACAAAAUGCCCCCGAACUUUCAAGCAACAGAGGAUUGAGCAUCA

target: T1, UNK ZnF1-3 (human, UniProt Q9C0B0 31-174); test: nsRBNS (natural sequence RNA bind-n-seq); RBNS binding buffer (assumed for nsRBNS): 25 mM Tris pH 7.5, 150 mM KCl, 3 mM MgCl2, 0.01% Triton X-100, 500 ug/ml BSA, 20 U/ml SUPERase-In, 4 C; UNK is unkempt and MSI1 is Musashi-1; names of the RNAs are library labels; protein concentration not given here; high values mean tight binding
T1 sequence: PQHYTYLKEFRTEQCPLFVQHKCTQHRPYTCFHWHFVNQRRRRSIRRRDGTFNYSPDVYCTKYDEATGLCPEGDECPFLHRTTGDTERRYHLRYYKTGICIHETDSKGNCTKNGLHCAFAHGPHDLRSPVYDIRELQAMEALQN

Binder | binding signal
B1 | 0.674 enrichment R
B2 | 0.775 enrichment R
B3 | 1.37 enrichment R
B4 | 0.878 enrichment R
B5 | 0.624 enrichment R
B6 | 0.701 enrichment R
B7 | 0.862 enrichment R
B8 | 1.01 enrichment R
B9 | 0.806 enrichment R
B10 | 1.66 enrichment R
B11 | 1.33 enrichment R
B12 | 0.71 enrichment R
B13 | 1.04 enrichment R
B14 | 1.24 enrichment R
